In the supplement of paper PMC11417369:
± gives the standard deviation of the averaged measurements. The list shows a part of the results.

Tested on: PfAP2-LT AP2 domain (GST-tagged)
Assay: gcPBM binding intensity (ln(normalized median fluorescence intensity)); higher = stronger DNA binding
Outline: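 GST-fused DNA-binding domains of P. falciparum, expressed in E. coli, were applied at about 25 μg on average for 1 h to an Agilent 4 × 180k array of primer-extended double-stranded 36-bp intergenic genomic probes and negative controls. Binding intensity is the highest Masliner-normalised natural-log median intensity across replicate spots of either probe orientation, measured with Alexa488 anti-GST antibody and a 488 nm scan.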

Row | Sequence | gcPBM binding intensity (ln)
1 | ATATCTATGTTTATCTCGAATAACTTAAAAAATTAT [CACACA_negctrl_site1131] | 8.45 ± 0.45
2 | CATACAGACATACATACACACATACATACAGACATA [CACACA_site6996] | 9.56 ± 0.35
3 | TGTAAATATATATATACACACACACCGAAGCAATAG [CACACA_site8960] | 9.73 ± 0.31
4 | TTTTTTTTTTTTTAAACATGCATATTAATATTATAT [TGCATGCA_site820] | 8.52 ± 0.42
5 | TAAAAAGGAAGACACACACACACATATATAAATATA [CACACA_site7657] | 10.2 ± 0.34
6 | GTATATCACACATTTGCATGTTGTCAATAGTTTATC [TGCATGCA_site134] | 9.16 ± 0.36
7 | TATATACACATATATAAACACACAAAAAAAAAAAAA [CACACA_site8626] | 8.89 ± 0.4
8 | ATACAAATTGTTTAAAGTACAAATTACACCTCTTAA [XGTACX_site6888] | 8.62 ± 0.44
9 | GTATTACAACGACACACACACCTATATATCATAGTA [CACACA_site7877] | 9.66 ± 0.34
10 | ACATTAAAAAAAAAATGTACATAAATATTTTTCCTT [XGTACX_site4361] | 8.48 ± 0.46
11 | AATTTTATTCATTGAGCACACAAAATAAATTATCAA [CACACA_site9079] | 8.62 ± 0.39
12 | ATCTTTTATATAAAATGTACAGAGTTTGAAAGAATA [XGTACX_site8826] | 8.39 ± 0.42
13 | TATCATTAATTTACATGTACATAAATGAATGTTTAT [XGTACX_site5608] | 8.72 ± 0.44
14 | TTCGTAATTTATATCACACACATATATCTATAATAA [CACACA_site7458] | 9 ± 0.3
15 | TTAAAAATATTATGTACACACATTTGAGATATTTGT [CACACA_site6953] | 8.97 ± 0.35
16 | TTTTTTGTTATTAAAAGTACATTATATGCTAGTTAA [XGTACX_site8747] | 8.3 ± 0.34
17 | TGAAATAAAATTTATACACACTTGCTAAATGATCAT [CACACA_site4265] | 8.74 ± 0.42
18 | ATTATATACATATATGCACACAAAAAAATATATATT [CACACA_site8508] | 9.09 ± 0.31
19 | AAAGGCTATCTTATATACTCCTAAAACGCGAACGTA [CACACA_negctrl_site396] | 8.53 ± 0.43
20 | ATAAATTCTATGTATACACACATATAAAATATAGAT [CACACA_site7296] | 8.96 ± 0.46
21 | AATATATAAATATTGTGTACTTATTTTTTTATATGT [XGTACX_site4377] | 8.77 ± 0.47
22 | AACAATTTATATAAAGCACACATGGGAAGGAAATAC [CACACA_site1712] | 9.25 ± 0.41
23 | TACAATTTAATATATACACACAAATAAATTATGCTT [CACACA_site856] | 8.71 ± 0.4

Row | Sequence | gcPBM binding intensity (ln)
24 | ATATGTATGAAGTGTACACATATATTGTATTTTCTT [CACACA_site5503] | 9.05 ± 0.42
25 | GTAAGCACACATAGTTGTACATTAATAAAAATAAAT [XGTACX_site5876] | 9.12 ± 0.51
26 | TTCCTATAAAAAAACACACACATATAAATATATATA [CACACA_site2318] | 9.07 ± 0.35
27 | AAAAAAAACGAACACACACACATTCAATATAAAACA [CACACA_site6170] | 9.76 ± 0.3
28 | CAATGGTCATTTAGTTGTACTTAATTTTAAATCAAA [XGTACX_site4075] | 8.38 ± 0.35
29 | ATATATGACAAATGTAGTACAAATTATTGTATCATA [XGTACX_site3675] | 9.01 ± 0.48
30 | TTATTGCATATTTACACACGTACTAATTTAAACAAG [CACACA_site971] | 8.91 ± 0.49
31 | AGAATATTTAAAAAAGGTACACAAAAACCAAAATAA [XGTACX_site8569] | 8.88 ± 0.46
32 | ATAAATTCATATATGAGTACTAAAAATATCTTTTTC [XGTACX_site5541] | 8.7 ± 0.4
33 | TATTAATACAGACACACACACACACCCAATAAAATA [CACACA_site243] | 10.29 ± 0.05
34 | AAAAACTATTGTAGGACACACAAAATTCCAATTTTA [CACACA_site1701] | 8.87 ± 0.45
35 | ATATATATAAAACACACACACACATGTTTTAAAACT [CACACA_site78] | 9.76 ± 0.18
36 | AAGTAATTTATGCATACACACATATATAAATATGTA [CACACA_site7813] | 8.96 ± 0.35
37 | CACAAAAAGAAACACACACACATATATATTTATTAT [CACACA_site3646] | 9.76 ± 0.19
38 | TATATATATATTTATACACACATTAGTGTATACATG [CACACA_site2950] | 9.23 ± 0.34
39 | AAATAAATGTTATGCATACACACTTTATACCTATTT [CACACA_site3779] | 9.1 ± 0.42
40 | ATATATATTAGGTATTGTACTTATATGCATATAAGT [XGTACX_site2700] | 8.81 ± 0.28
41 | AATGAATGAATTATTTTGCGCTTATTATAGGACGAA [XGTACX_negctrl_site218] | 8.74 ± 0.41
42 | TCTTTTATGTTTGTTTTTCCCTTTTTTTATGTTCCC [CACACA_negctrl_site1722] | 8.81 ± 0.53
43 | TTTTTTTATTATTAAAGTACTAAAAAATGAAAACTG [XGTACX_site6758] | 8.06 ± 0.29
44 | TGGGAATAAAAACACACACACACACCGATATATATA [CACACA_site5875] | 10.1 ± 0.41
45 | TATAATAAAAAATGTACACACATAAGAAAATTTAAT [CACACA_site2901] | 9.1 ± 0.41
